# PubChem BioAssay AID624296 (National Center for Advancing Translational Sciences (NCATS), 2012)
# Screen size: about 350,000 compounds; about 9,900 (2.8%) were called active. Inconclusive means that the source gave no clear call. Such entries were picked first, then a sample of the others. Calls follow the shape of the dose curve; as a rule, active = well fitted activation curve with a large enough effect; inconclusive = small, poorly fitted or top-dose-only effect; inactive = no such curve, though single readings can be large or run the other way. Potencies of inconclusive entries are left out as doubtful fits.
# Test: A quantitative high throughput screen for small molecules that induce DNA re-replication in MCF 10a normal breast cells. Also: nearly all actives have a fitted effect of over 50% in size.
# Conditions: MCF 10A DNA re-replication, Hoechst nuclear intensity, 48 h; series mostly up to 46.1 µM
# Potency is read from the fitted curve at half-maximal effect; tags tell the direction and shape of the fitted curve.
row,SMILES,Potency
1,CCN1CCC(CNCc2cn(-c3ccc(OC)cc3)nc2-c2ccccc2Cl)C1 (stereo not given),"inconclusive [activator, partial curve, poor fit]"
2,O=[N+]([O-])c1ccc(O)c(C=Nc2ccc3c(c2)OCO3)c1,inactive
3,Cc1nn(-c2ccccc2)c(Cl)c1/C=N/NC(=O)OC(C)(C)C,"inconclusive [activator, partial curve, poor fit]"
4,CCCSCCCNC(=O)c1ccc(C)c(NC(=O)C2=C(C)OCCS2)c1,"inconclusive [activator, single point]"
5,FC(F)(F)c1ccnc(NCc2ccc(Cl)cc2)n1,inactive
6,CCOc1ccc2nc(NCCNS(=O)(=O)c3ccccc3)c(C#N)cc2c1,"inconclusive [activator, full curve]"
7,CCOCCCNc1ncnc2c1[nH]c1ccccc12,inactive
8,Cc1cc(C)n(-c2ccc(C(=O)N3CCC(CO)(Cc4ccccc4)CC3)cc2)n1,inactive
9,CCC(=O)NCCNc1nc2cc(C)cc(C)c2cc1C#N,inactive
10,COc1ccc2sc(N(CCN(C)C)C(=O)/C=C/c3cccs3)nc2c1,"inconclusive [activator, single point]"
11,CCCC[C@@H]1CN=C(N)N1CCc1cc(C(F)(F)F)cc(C(F)(F)F)c1,"inconclusive [activator, single point]"
12,C[C@H]1C[C@@H]2[C@@H]([C@@H](O)C[C@@]3(C)[C@H]2CC[C@]3(O)C(=O)CO)[C@@]2(C)C=CC(=O)C=C12,inactive
13,O=c1nc(NCc2ccccc2Cl)cn[nH]1,"inconclusive [activator, partial curve, poor fit]"
14,O=C(CN1c2ccccc2Sc2ccccc21)N/N=C/c1ccc([N+](=O)[O-])cc1,inactive
15,O=C(NCc1ccc2c(c1)OCO2)C1CC(c2cccc(Br)c2)=NO1 (stereo not given),active: 11.6 µM
16,O=C(NNC(=O)c1cc2cc3ccccc3nc2s1)c1cccc(C(F)(F)F)c1,"inconclusive [activator, single point]"
17,Cc1c(CCC(=O)NCCCn2ccnc2)c(=O)oc2cc3occ(C(C)(C)C)c3cc12,"inconclusive [activator, partial curve, poor fit]"
18,COc1ccc(C(=O)Nc2ccc(NC(=O)c3ccccc3)cc2)cc1S(=O)(=O)N1CCOCC1,"inconclusive [activator, single point]"
19,O=S(=O)(NC1CCCc2ccccc21)c1cnc[nH]1 (stereo not given),"inconclusive [activator, partial curve, poor fit]"
20,Cc1cccc(NC(=O)Nc2ccccc2[N+](=O)[O-])n1,inactive
21,CCNC(=O)/C(C#N)=C/c1c(N2CC(C)OC(C)C2)nc2ccccn2c1=O (stereo not given),inactive
22,CCn1c(=O)n(CC)c2cc(N3CCCC3)c(NC(=O)c3cccc(Cl)c3)cc21,"inconclusive [activator, partial curve, poor fit]"
23,CCCS(=O)(=O)N1CCCC(C(=O)c2ccccc2OC)C1 (stereo not given),"inconclusive [activator, partial curve, poor fit]"
24,O=C1[C@H](Oc2ccccc2)[C@@H](c2ccccc2)N1c1ccncc1,"inconclusive [activator, full curve, poor fit]"

row,SMILES,Potency
1,CC1CC2(CC(C)(C(=O)CSc3n[nH]c(-c4ccccc4Cl)n3)OC2=O)C(=O)O1 (stereo not given),inactive
2,Cc1ccc(-n2c(C)cc(/C=C3/C(=N)N4C(c5ccccc5)=CSC4=NC3=O)c2C)cc1,"inconclusive [activator, single point]"
3,CCOC(=O)c1c(-c2ccccc2Cl)csc1NC(=O)c1cc(S(=O)(=O)N2CCOCC2)ccc1C,"inconclusive [activator, single point]"
4,O=C(CN1C(=O)c2cccc([N+](=O)[O-])c2C1=O)NNC(=O)c1ccc(F)cc1,inactive
5,Cc1cc(C)cc(N(CC(=O)NCc2ccc(F)cc2)C(=O)c2snc(C(N)=O)c2N)c1,"inconclusive [activator, single point]"
6,COc1ccc(-c2cn3c(n2)CCC3)cc1,"inconclusive [activator, partial curve, poor fit]"
7,COc1ccccc1OCCNC(=O)c1ccccc1C,inactive
8,CN(CC(=O)Nc1ccccc1Cl)C(=O)COC(=O)c1nc(Cl)c(Cl)c(Cl)c1Cl,active: 5.8 µM
9,COc1ccc(Cl)cc1C(=O)Nc1ccc(CN2CCCCC2)cc1,"inconclusive [activator, single point]"
10,COC(=O)CNC(=O)COC(=O)/C=C/c1ccc2ccccc2n1,"inconclusive [activator, single point]"
11,CNc1ncnc(Sc2nc(N)nc3nc[nH]c23)c1[N+](=O)[O-],"inconclusive [activator, full curve, poor fit]"
12,Cc1ccc(-c2nnc(COC(=O)c3cc(=O)[nH]c4ccccc34)o2)cc1,inactive
13,O=C(C1CCC(CNc2nc(=S)[nH]c3ccccc23)CC1)N1CCN(c2ccc(F)cc2)CC1 (stereo not given),"inconclusive [activator, partial curve, poor fit]"
14,CC1CCN(CCCCOc2ccc(C(=O)c3ccccc3)cc2)CC1,"inconclusive [activator, partial curve, poor fit]"
15,Cc1cccc(C)c1NC(=O)C1(NC(=O)c2cnccn2)CCCCC1,"inconclusive [activator, single point]"
16,Cc1cc(Br)ccc1NC(=O)CN(C)C(=O)c1ccc2ccccc2n1,inactive
17,COc1cccc2c1Oc1ncccc1N(C(=O)CCC(=O)NCc1ccccc1F)C2,inactive
18,Cc1ccc(S(=O)(=O)N2CCCCC2CCNC(=O)C(=O)NCc2ccccc2C)cc1 (stereo not given),"inconclusive [activator, partial curve, poor fit]"
19,Cc1ccc(C(=O)O/N=C(\N)c2ccccn2)cc1C,"inconclusive [activator, single point]"
20,C/C(=C\c1ccco1)CN1CCN(Cc2ccc(C)o2)C(CCO)C1 (stereo not given),inactive
21,COc1ccc(OC)c(NC(=O)CSc2nncc3ccc(OC)c(OC)c23)c1,"inconclusive [activator, partial curve, poor fit]"
22,CC(C)OCCCNc1nc(-c2ccccc2)nc2ccccc12,inactive
23,COc1cc(S(=O)(=O)NCc2cccnc2)c(OC)cc1Br,"inconclusive [activator, partial curve, poor fit]"
24,COC(=O)CC1COc2ccccc2N1C(=O)/C=C/c1ccccc1 (stereo not given),inactive

row,SMILES,Potency
1,CN(CCOc1ccccc1Cl)Cc1ccccc1,"inconclusive [activator, partial curve, poor fit]"
2,O=C(C1CC(=O)N(c2ccc(F)cc2)C1)N1CCOCC1 (stereo not given),inactive
3,CCCCOCCCNS(=O)(=O)c1ccccc1,"inconclusive [activator, partial curve]"
4,CC(C)(C)C1CCC(C(=O)OCC(=O)c2ccc[nH]2)CC1 (stereo not given),"inconclusive [activator, single point]"
5,CCc1cc(C(c2ccncc2)N2CCN(C)CC2)c(NC(=O)c2ccccc2)s1 (stereo not given),inactive
6,Cc1csc2c(N3CCN(C(=S)Nc4ccc(C(F)(F)F)cc4)CC3)ncnc12,"inconclusive [activator, single point]"
7,Cc1c(C)n(-c2ccc(Cl)cc2)c2ncnc(N)c12,inactive
8,c1ccc(C2Nc3ccccc3C3OCCCC23)cc1 (stereo not given),"inconclusive [activator, full curve]"
9,CCOC(=O)c1c(C)oc2c1c(C(c1ccccc1)N1CCOCC1)c(O)c1ccccc12 (stereo not given),active: 4.11 µM
10,Cn1ccnc1SCC(=O)Nc1ccc(Oc2ccccc2)cc1,"inconclusive [activator, partial curve, poor fit]"
11,CCOC(=O)/C(C#N)=C1/C=C(C)NC(c2ccccc2O)=N1,active: 6.51 µM
12,Cc1ccc(-c2csc(N(CCCN(C)C)C(=O)c3ccco3)n2)cc1,"inconclusive [activator, partial curve, poor fit]"
13,CN(C(=O)C1CCC(=O)N(CCCN2CCCC2=O)C1)C(C1CC1)C1CC1 (stereo not given),inactive
14,Nn1c(=O)c2ccccc2n2c(SCc3ccc(C(F)(F)F)cc3)nnc12,"inconclusive [activator, partial curve, poor fit]"
15,Cc1ccc(C(=O)N(c2ccccc2)C2CC(C)N(C(=O)c3ccco3)c3ccccc32)cc1 (stereo not given),inactive
16,CC1CC(C)(C)NC(=S)N1CCC(=O)Nc1ccc2c(c1)OCCO2 (stereo not given),"inconclusive [activator, single point]"
17,O=C(c1ccccc1)N1N=C(c2ccccc2)CC1c1cccs1 (stereo not given),"inconclusive [activator, single point]"
18,COc1ccc(OC)c(S(=O)(=O)ON2C(=O)c3ccccc3C2=O)c1,active: 6.51 µM
19,CCn1cc([N+](=O)[O-])c(C(=O)N2N=C(c3ccc4ccccc4c3)CC2c2cc(Br)ccc2O)n1 (stereo not given),"inconclusive [activator, full curve, poor fit]"
20,CCOCCCNC(=O)c1cc2c(=O)[nH]c3ccccc3c2s1,inactive
21,CCOC(=O)c1ccc(-c2c(-c3ccc4c(c3)OCO4)noc2-c2ccsc2)cc1F,"inconclusive [activator, partial curve, poor fit]"
22,COCCCNc1nc2c(-c3ccc(Cl)cc3)nnn2c2ccccc12,"inconclusive [activator, partial curve, poor fit]"
